According to PMC7864062:
Numbering of substitutions follows the chain as printed. These are yes or no findings as the source states them, for the method shown. Binding seen in cells or lysates may run through a third protein. Some binding calls cover weakened binding; strength is not graded here. Sequences can lack the tags named with a protein.

The chains behind the UniProt entries cited, without tags or fusion partners. Where a name states a change or a piece, a line headed by the entry shows the natural chain unless it says otherwise.
UniProt Q8N4G2: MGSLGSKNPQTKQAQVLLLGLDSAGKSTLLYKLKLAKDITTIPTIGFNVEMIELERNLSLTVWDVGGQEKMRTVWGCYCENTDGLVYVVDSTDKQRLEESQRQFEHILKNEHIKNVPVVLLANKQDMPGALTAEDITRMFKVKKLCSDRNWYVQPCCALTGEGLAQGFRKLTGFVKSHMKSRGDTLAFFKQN

Key:
Experiment in all cases: co-IP; GFP trap beads incubated with cell lysates from HeLa cells expressing the GFP-tagged constructs and HA-Sys1; bound proteins analyzed by Western blotting
[1] = biological target: T1, GFP-tagged Arfrp1 (Arfrp1–GFP) (human) (UniProt Q13795)
T1 sequence: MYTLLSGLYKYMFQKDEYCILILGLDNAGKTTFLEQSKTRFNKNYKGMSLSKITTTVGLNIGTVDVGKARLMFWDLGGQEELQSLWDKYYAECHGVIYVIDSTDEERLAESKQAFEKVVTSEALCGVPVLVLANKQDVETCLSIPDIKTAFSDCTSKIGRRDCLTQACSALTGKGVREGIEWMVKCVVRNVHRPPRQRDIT

Arfrp1^1–17–GFP (human) = biological target: T2, Arfrp1^1–17–GFP (human) (UniProt Q13795)
T2 sequence: MYTLLSGLYKYMFQKDE

[2] = biological target: T3, Arfrp1^1–17-Arl14^18-192–GFP (human) (UniProt Q13795+Q8N4G2)
T3 sequence: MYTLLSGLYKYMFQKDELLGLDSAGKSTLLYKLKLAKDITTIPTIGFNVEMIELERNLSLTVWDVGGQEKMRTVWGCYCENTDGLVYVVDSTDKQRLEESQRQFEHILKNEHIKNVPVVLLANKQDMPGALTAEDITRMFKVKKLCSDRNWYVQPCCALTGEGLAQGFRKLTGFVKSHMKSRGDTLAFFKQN

[3] = biological target: T4, Arfrp1^1–17–GFP with Y2A mutation on the Arfrp1 helix (human) (UniProt Q13795)
T4 sequence: MATLLSGLYKYMFQKDE

Arfrp1^Y2A–GFP (human) = biological target: T5, Arfrp1^Y2A–GFP (human) (UniProt Q13795)
T5 sequence: T1 sequence with Y2A

[4] = biological target: T6, Arfrp1^1–17-Arl14^18-192–GFP with Y2A mutation on the Arfrp1 helix (human) (UniProt Q13795+Q8N4G2)
T6 sequence: T3 sequence with Y2A

binding [1]: binds
binding (Arfrp1^1–17–GFP (human)): binds
binding [2]: binds
binding [3]: no binding
binding (Arfrp1^Y2A–GFP (human)): no binding
binding [4]: no binding
B1: Human Sys1 with 3× HA tag at its C terminus (protein, UniProt Q8N2H4 1-156)
chain: MAGQFRSYVWDPLLILSQIVLMQTVYYGSLGLWLALVDGLVRSSPSLDQMFDAEILGFSTPPGRLSMMSFILNALTCALGLLYFIRRGKQCLDFTVTVHFFHLLGCWFYSSRFPSALTWWLVQAVCIALMAVIGEYLCMRTELKEIPLNSAPKSNV
